# PubChem BioAssay AID504339 (National Center for Advancing Translational Sciences (NCATS), 2011)
# The campaign covered roughly 390,000 compounds. About 17,000 (4.4%) were called active. The shares of active, inactive and inconclusive entries below differ from those in the screen. The call rests on the fitted dose curve; in most records, active means well fitted inhibition curve with a large enough effect; inconclusive means small, poorly fitted or top-dose-only effect; inactive means no such curve, though single readings can be large or run the other way. Potencies of inconclusive entries are doubtful fits and often do not repeat.
# Biological target: Lysine-specific demethylase 4A (Homo sapiens) (UniProt O75164)
# Assay: qHTS Assay for Inhibitors of JMJD2A-Tudor Domain; further: nearly all actives have a fitted effect of over 50% in size
# Settings: AlphaScreen JMJD2A-Tudor / H3K4me3 peptide binding; activity change, negative = inhibition: at 114 µM (top of the series)
# On the % scale 0 is the no-effect control and ±100 the full control effect; potency means the concentration at half of the fitted maximal effect; tags describe the fitted curve by direction and shape.
# Chain of UniProt O75164 (O75164 whole entry, looked up, the tested form may be a part): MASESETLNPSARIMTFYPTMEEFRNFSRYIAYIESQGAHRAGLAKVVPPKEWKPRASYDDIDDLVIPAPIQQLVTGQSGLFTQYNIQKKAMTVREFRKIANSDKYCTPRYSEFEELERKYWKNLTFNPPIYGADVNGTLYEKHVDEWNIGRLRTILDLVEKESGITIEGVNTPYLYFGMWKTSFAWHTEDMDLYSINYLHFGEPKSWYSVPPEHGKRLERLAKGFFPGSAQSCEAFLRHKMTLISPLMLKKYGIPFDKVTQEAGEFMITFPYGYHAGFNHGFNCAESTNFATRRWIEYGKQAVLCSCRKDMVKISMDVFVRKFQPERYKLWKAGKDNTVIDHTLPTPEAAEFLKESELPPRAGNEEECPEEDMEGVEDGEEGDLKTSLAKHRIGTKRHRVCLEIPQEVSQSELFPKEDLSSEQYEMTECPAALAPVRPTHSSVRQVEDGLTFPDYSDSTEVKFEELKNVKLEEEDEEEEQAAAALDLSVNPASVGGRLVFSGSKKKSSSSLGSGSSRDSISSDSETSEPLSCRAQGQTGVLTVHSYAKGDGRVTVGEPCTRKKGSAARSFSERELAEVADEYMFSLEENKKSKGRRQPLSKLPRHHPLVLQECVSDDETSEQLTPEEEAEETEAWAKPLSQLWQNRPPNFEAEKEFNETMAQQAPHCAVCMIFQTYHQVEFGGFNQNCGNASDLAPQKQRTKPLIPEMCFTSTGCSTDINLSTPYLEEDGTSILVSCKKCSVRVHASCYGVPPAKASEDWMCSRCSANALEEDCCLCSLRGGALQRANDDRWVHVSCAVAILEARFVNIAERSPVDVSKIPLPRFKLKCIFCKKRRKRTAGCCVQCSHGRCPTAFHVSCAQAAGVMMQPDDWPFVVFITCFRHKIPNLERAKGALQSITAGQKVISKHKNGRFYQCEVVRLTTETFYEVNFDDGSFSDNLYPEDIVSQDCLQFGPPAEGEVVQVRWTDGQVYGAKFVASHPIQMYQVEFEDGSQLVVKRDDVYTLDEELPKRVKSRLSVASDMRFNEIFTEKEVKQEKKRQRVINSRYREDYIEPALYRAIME
Compound,Potency,"activity change, negative = inhibition"
COc1ccc(NC(=O)CSc2nnc(Cc3cccs3)n2-c2ccc(C)cc2)cc1,"inconclusive: 63.1 µM [inhibitor, partial curve, poor fit]",
Cc1nc2c(C(=O)NCc3ccccc3Cl)c[nH]n2c(=O)c1Cc1cccc(Cl)c1,"inconclusive: 63.1 µM [inhibitor, partial curve, poor fit]",
COC(=O)C1=C(C(=O)OC)[C@@H]2N(C)c3ccc(OC)cc3[C@@]23C[C@@H](C(=O)OC)N(S(=O)(=O)c2ccc(OC)cc2)C3=N1,"inconclusive: 20 µM [inhibitor, full curve]",
COc1cc(/C=C/C(=O)OCC(=O)N(C)CC(=O)Nc2ccc(F)cc2)ccc1OC(F)F,inactive,
Cc1cc(N/N=C(/CCC(=O)O)C(=O)O)nc2ccccc12,"inconclusive: 70.8 µM [inhibitor, single point]",
CCOC(=O)N1CCN(C(=O)CSc2nnc(-c3cccc(OC)c3)o2)CC1,"inconclusive: 6.31 µM [inhibitor, single point]",
S=c1[nH]c2ccccc2n1Cc1ccccc1,"inconclusive: 56.2 µM [inhibitor, partial curve]",
O=[N+]([O-])c1ccc(CNc2cccc(F)c2)s1,"inconclusive: 50.1 µM [inhibitor, partial curve]",
COc1cc(CCC(=O)N2CCN(c3cccc(C)c3C)CC2)cc(OC)c1OC,inactive,
CC(C)=CCC12Oc3cc(O)ccc3C1(O)Oc1cc3c(c(O)c1C2=O)C=CC(C)(C)O3 (stereo not given),"inconclusive: 56.2 µM [inhibitor, partial curve]",
CCOC(=O)C1CCN(c2c(C(=O)c3ccc(OCC)cc3)cnc3ccc(OC)cc23)CC1,"inconclusive: 0.631 µM [inhibitor, full curve, poor fit]",
CCOC(=O)C1=C(C)OC(N)=C(C#N)C1c1cc2c(cc1[N+](=O)[O-])OCO2 (stereo not given),"inconclusive: 56.2 µM [inhibitor, partial curve]",
Cc1noc(C)c1C(=O)NCCc1ccc(Cl)cc1,"inconclusive: 39.8 µM [inhibitor, full curve]",
Clc1cccc2c1Sc1ccccc1CC2N1CCNCC1 (stereo not given),"inconclusive: 50.1 µM [inhibitor, partial curve]",
CC(C)(C)n1nnnc1C(c1ccncc1)N(Cc1ccccc1)Cc1ccco1 (stereo not given),"inconclusive: 89.1 µM [inhibitor, single point]",
Cc1ccccc1-c1nc2ccccc2c(=O)n1/N=C/c1ccccc1[N+](=O)[O-],"inconclusive: 56.2 µM [inhibitor, partial curve]",
COc1ccc(CN(C)CC(=O)NC(C)c2ccccc2)c(OC)c1 (stereo not given),active: 1.78 µM,
Cn1c(=O)c2c(nc(C(O)c3ccccc3)n2C)n(C)c1=O (stereo not given),inactive,
CC(C)[C@H](Nc1ccc(S(=O)(=O)N2CCOCC2)cc1[N+](=O)[O-])C(=O)OCC(=O)N(C(C)C)C(C)C,"inconclusive: 50.1 µM [inhibitor, single point]",
CCOC(=O)c1c(C)[nH]c(C)c1C(=O)Cn1nnc(-c2ccccc2C)n1,"inconclusive: 56.2 µM [inhibitor, partial curve]",
COc1ccc(-c2ccc3c(=O)cc(-c4ccsc4)oc3c2)cn1,"inconclusive: 35.5 µM [inhibitor, partial curve, poor fit]",
CC(C)(Oc1ccc(Cl)cc1)C(=O)N/N=C/c1cn[nH]c1-c1ccccc1,"inconclusive: 56.2 µM [inhibitor, partial curve]",

Compound,Potency,"activity change, negative = inhibition"
CCOc1ccccc1NC(=O)c1c(NC(=O)CCC(=O)O)sc2c1CCCCC2,active: 44.7 µM,
COc1cccc(-c2nn3c(-c4ccccn4)nnc3s2)c1,active: 79.4 µM,
COc1ccc(-c2ccc(N(C)C)cc2)cc1C1C2C=CCC(C)C2C(=O)N1Cc1ccccc1 (stereo not given),active: 7.08 µM,
COc1ccccc1CNC(=O)CCc1c(C)c2ccc(OC)c(C)c2oc1=O,inactive,
COc1ccc(-c2nc3c4ccccc4ccn3c2CN2CCCCC2)cc1OC,"inconclusive: 56.2 µM [inhibitor, partial curve]",
C#CCOCCOCCOCCNc1nc(N2CCN(C(=O)CCCCCCCCCCNC(=O)[C@@H]([C@H](C)O)n3cc(C)nn3)CC2)nc(N2CCN(C(=O)CCCCCCCCCCNC(=O)[C@@H]([C@H](C)O)n3cc(C)nn3)CC2)n1,"inconclusive: 70.8 µM [inhibitor, partial curve]",
CC/C(=N\NC(=S)Nc1ccc(OC)cc1)c1ccc(OC(F)F)cc1,"inconclusive: 39.8 µM [inhibitor, partial curve]",
COc1ccc(NC(=O)c2cc(-c3ccccc3)nc3c2cnn3C(C)C)cc1,active: 79.4 µM,
CCN(CC)S(=O)(=O)c1ccc(N2CCOCC2)c(NC(=O)c2c3c(nc4ccccc24)CCC3)c1,"inconclusive: 28.2 µM [inhibitor, partial curve]",
Cc1c(C(=O)Nc2nc(-c3ccc(F)cc3)ns2)oc2ccc(Br)cc12,inactive,
COc1ccc(-n2c(-c3cccc(C)c3[N+](=O)[O-])n[nH]c2=S)cc1,"inconclusive: 39.8 µM [inhibitor, partial curve, poor fit]",
Cc1c(CNCCc2ccccc2Cl)c(C(=O)O)c(C)n1-c1ccccc1,"inconclusive: 50.1 µM [inhibitor, partial curve]",
CC(C)CC(=O)N1CCN(Cc2cccc(F)c2)CC1,active: 4.47 µM,
CCN(CC)CCN(C(=O)c1ccc2c(c1)OCCO2)c1nc2ccc(C)cc2s1,"inconclusive: 56.2 µM [inhibitor, partial curve]",
Cc1c(C(=O)Nc2ccccc2Br)oc2ccc(S(=O)(=O)N3CCCCCC3)cc12,"inconclusive: 89.1 µM [inhibitor, single point]",
NNC(=O)CS(=O)(=O)CS(=O)(=O)CC(=O)NN,"inconclusive: 89.1 µM [inhibitor, single point]",
CC1=C(C(=O)c2ccccc2)C(c2cccc([N+](=O)[O-])c2)NC(=S)N1 (stereo not given),"inconclusive: 50.1 µM [inhibitor, partial curve, poor fit]",
O=[N+]([O-])c1cc(/C=N/n2cnnc2)ccc1N1CCCC1,inactive,
COc1cccc(NCc2cccn2-c2nnc(N3CCC(C)CC3)s2)c1,inactive,
COc1ccc(OC)c(CN2CCN(C(=O)c3cc(S(=O)(=O)Nc4ccccc4OC)ccc3C)CC2)c1,"inconclusive: 17.8 µM [inhibitor, full curve]",
CN(C)CCCN(C(=O)CCOc1ccccc1)c1nc2ccc(F)cc2s1,inactive,
Cc1ccc(O)c(N=Cc2sc3ccccc3c2Cl)c1,inactive,

Compound,Potency,"activity change, negative = inhibition"
CCOc1ccc(CC(=O)Nc2cccc(-c3nc4cccnc4s3)c2C)cc1,inactive,
CCn1c2ccccc2c2cc(CN3CCN(Cc4ccc(Br)cc4)CC3)ccc21,active: 4.47 µM,
COc1cccc2c(=O)cc(C)n(CC(=O)Nc3ccc(C)c(C)c3)c12,inactive,
Cc1ccc(-c2cc(C(=O)N3CCOCC3)c3ccccc3n2)cc1,"inconclusive: 89.1 µM [inhibitor, single point]",
CSc1ccc(C(=O)C2CCCN(Cc3cccc4nccnc34)C2)cc1 (stereo not given),"inconclusive: 79.4 µM [inhibitor, partial curve, poor fit]",
CC1(C)CC(=O)C(C=NCCCN2CCOCC2)=C(O)C1,,inactive: -9.16% [at 11.4 µM]
O=C(O)C1Cc2ccccc2CN1C(=O)c1ccco1 (stereo not given),"inconclusive: 89.1 µM [inhibitor, partial curve]",
CCC(=O)NC(Cc1ccccc1)c1nc2ccccc2[nH]1 (stereo not given),inactive,
COC(=O)c1ccc([C@@H]2Nc3c(OC)ccc(C)c3[C@@H]3C=CC[C@@H]32)cc1,"inconclusive: 50.1 µM [inhibitor, partial curve]",
CS(=O)(=O)N1CCN(c2ccc([N+](=O)[O-])c(NCc3ccc(Cl)cc3)c2)CC1,active: 89.1 µM,
Cc1cccc(/C=N\NC(=O)c2sccc2-n2cccc2)c1,"inconclusive: 79.4 µM [inhibitor, partial curve]",
O=C(CSc1nc2nn(-c3ccccc3)c(=O)c-2c2n1CCCCC2)Nc1ccc(OC(F)F)cc1,"inconclusive: 44.7 µM [inhibitor, partial curve]",
O=C(NCCCN1CCCC1)Nc1ccccc1[N+](=O)[O-],inactive,
CCN(CC)c1ccc(NC(=O)CCNC(=O)c2ccco2)cc1,"inconclusive: 17.8 µM [inhibitor, full curve, poor fit]",
Clc1ccc(C2=CC(c3ccco3)n3ncnc3N2)cc1 (stereo not given),"inconclusive: 79.4 µM [inhibitor, partial curve]",
Cc1ccc(C2C(C(=O)c3cc4ccccc4o3)=C(O)C(=O)N2c2cc(C)on2)cc1 (stereo not given),"inconclusive: 14.1 µM [inhibitor, partial curve, poor fit]",
CCOc1ccc(C2C(C(=O)/C=C/c3ccco3)=C(O)C(=O)N2CCN2CCOCC2)cc1OC (stereo not given),"inconclusive: 79.4 µM [inhibitor, partial curve]",
COc1cccc(-c2ccc(C#N)c(SCC(=O)NCCc3ccc(Cl)cc3)n2)c1,"inconclusive: 79.4 µM [inhibitor, partial curve]",
CC(C)c1ccccc1NC(=O)c1cnccn1,inactive,
COc1cccc(/C=C2/NC(=O)N(CC(=O)Nc3ccc(C)cc3)C2=O)c1OCc1cccc(C(=O)O)c1,"inconclusive: 50.1 µM [inhibitor, partial curve]",
Cc1cc(C)nc(NS(=O)(=O)c2ccc(NC(=O)c3cc(-c4ccccc4)nc4ccccc34)cc2)n1,inactive,
